Test results as given in the RNAGym collection of RNA variant scans (doi:10.7554/elife.90254).
The source gives no read counts; variants with many changes may rest on few reads.

B1: LINE1-full (parent)
chain: UACGUAGGUGGUUUUCCCCUGAUAGUGCUAAGGGGGCCUGGAAGUUUGGACUGGGCAGAGCUCAACACAGCGUGGCAAAGUGGCUGUGGCUAGACUGCCUCUCUGGAUUCCUCGUCACUCAGCAGGGCAUCUCUGAGAGAAAUGCC

Variants of: B1
Test: self-cleavage, relative activity (ratio to wild type); higher = more cleavage; in vitro, sequencing; the parent is a self-cleaving ribozyme
Variant U39A U46C U81C U130C has a self-cleavage of 1.62. With U39A U47A U85C U115C the self-cleavage was 0.09. U39A U47A U130C gave a self-cleavage of 1.27. U39A U52A A65U G72A U130C gave a self-cleavage of 0.13. Variant U39A U62A A69G U108C A117U has a self-cleavage of 0. U39A U62A A138U A140G showed a self-cleavage of 0.03. U39A U62C A77G A142G gave a self-cleavage of 0.08. In the case of U39A U62C C76A A77G, the self-cleavage is reported as 0.02. U39A U73A A129C gave a self-cleavage of 1.93. U39A U73A U115C C145G gave a self-cleavage of 1.84. In the case of U39A U73C C90U, the self-cleavage is reported as 0.06. U39A U81A A142U gave a self-cleavage of 1.6. U39A U81G A94G A124G gave a self-cleavage of 0.37. U39A U81G G88U U102C A124G A138U showed a self-cleavage of 0.07. For U39A U85A U134A, the self-cleavage was 0.08. With U39A U96A U109A G122A the self-cleavage was 0.03. With U39A U96C A141G the self-cleavage was 0. Work on U39A U96G U100C C103U yielded a self-cleavage of 0. U39A U102C A117G U130C A142G gave a self-cleavage of 1.97. For U39A U104G A141G, the self-cleavage was 1.2. U39A U112A U143A showed a self-cleavage of 1.39. U39A U112C C113U G127U A141G showed a self-cleavage of 1.59. Variant U39A U112C C113U U132A has a self-cleavage of 0.61. U39A U132C A142G gave a self-cleavage of 1.66. In the case of U39C A42G U47C, the self-cleavage is reported as 0.48. U39C A43G A69G U132A gave a self-cleavage of 0. U39C A43G G114A U115C gave a self-cleavage of 1.47. For U39C A50C A142G, the self-cleavage was 1.15. In the case of U39C A50G A65U, the self-cleavage is reported as 0.17. Variant U39C A50U A78G has a self-cleavage of 0.3. In the case of U39C A50U U91A, the self-cleavage is reported as 0.21. U39C A57G A92G gave a self-cleavage of 0. U39C A57G C99A showed a self-cleavage of 0.33. Variant U39C A57U A59U U91A has a self-cleavage of 0.05. In the case of U39C A59G A64G U104A A141G, the self-cleavage is reported as 0. Variant U39C A59G U100C A121G C128A has a self-cleavage of 0.3. Work on U39C A64G A67U G74A A77G A117U A124U A129C yielded a self-cleavage of 0. In the case of U39C A64G A79G A138G C145U, the self-cleavage is reported as 0.57. With U39C A64G G83A the self-cleavage was 0.15. With U39C A64G U100C the self-cleavage was 0. U39C A64U A124U A140G gave a self-cleavage of 0.31. Variant U39C A64U U134C A141G has a self-cleavage of 0.2. With U39C A65G A77U the self-cleavage was 0.09. U39C A65U A77G gave a self-cleavage of 0.25. In the case of U39C A67G C101A, the self-cleavage is reported as 0.14. U39C A67G G83A U87C A107U showed a self-cleavage of 1.88. With U39C A69G U96A A141G the self-cleavage was 0. Work on U39C A69U A78G yielded a self-cleavage of 0.07. For U39C A69U U91C G105A, the self-cleavage was 0.04. For U39C A77G C118A A142G, the self-cleavage was 1.5. In the case of U39C A77G U85C G122A, the self-cleavage is reported as 0.11. U39C A77G U112C U134C showed a self-cleavage of 1.31. For U39C A78G U104A, the self-cleavage was 0.54. U39C A78G U108C showed a self-cleavage of 1.15. With U39C A78G U109A the self-cleavage was 0.4. In the case of U39C A79U U87C A142G U143C, the self-cleavage is reported as 0. With U39C A92G U104A the self-cleavage was 0. Variant U39C A92U A107G has a self-cleavage of 0. In the case of U39C A94G A107U, the self-cleavage is reported as 0. With U39C A94G A124G the self-cleavage was 0. U39C A121U A136U showed a self-cleavage of 0.98. U39C A124U A136U showed a self-cleavage of 0.43. U39C A124U U130C U134A showed a self-cleavage of 0.75. U39C A142G U143A showed a self-cleavage of 1.18. U39C C120U A142G showed a self-cleavage of 1.48. U39C C145A C146U gave a self-cleavage of 0.67. U39C G40U U109C showed a self-cleavage of 1.6. Variant U39C G48A A69U A79U has a self-cleavage of 0.03. Work on U39C G48A U109C yielded a self-cleavage of 0.66. With U39C G53A A129U U134G the self-cleavage was 1.22. Variant U39C G83A U112C A124G has a self-cleavage of 0.23. In the case of U39C U45A U100C A142G, the self-cleavage is reported as 2.24. With U39C U45C A69C A78G the self-cleavage was 0. U39C U45C A141G showed a self-cleavage of 1.23. Work on U39C U45C G54A yielded a self-cleavage of 0.77. In the case of U39C U45C G55A A138G A142G, the self-cleavage is reported as 0.47. With U39C U45G G72A G106A A117G the self-cleavage was 1.7. With U39C U45G U132C the self-cleavage was 0.23. Variant U39C U46A U143A has a self-cleavage of 1.48. Work on U39C U46C G54C C76U yielded a self-cleavage of 0.96. U39C U46C G88A gave a self-cleavage of 0.1. Work on U39C U46C U81A yielded a self-cleavage of 2.46. Variant U39C U46C U85C U102C has a self-cleavage of 1.31. With U39C U47C G105A A136G A142G the self-cleavage was 0.3. U39C U52A G72A showed a self-cleavage of 0.05. Work on U39C U52C A64G yielded a self-cleavage of 0.44. For U39C U52C U109C, the self-cleavage was 0.24. With U39C U52C U130C the self-cleavage was 0.41. Variant U39C U62A A79G has a self-cleavage of 0.09. With U39C U62C A78G U96A the self-cleavage was 0.04. In the case of U39C U62C A79U A138G, the self-cleavage is reported as 0.03. With U39C U62C C68U the self-cleavage was 0.03. For U39C U62C U85A, the self-cleavage was 0. With U39C U62C U91A the self-cleavage was 0. U39C U62C U96G gave a self-cleavage of 0. U39C U62C U100C U112A gave a self-cleavage of 0. Variant U39C U62C U112C has a self-cleavage of 0. U39C U73A A141U showed a self-cleavage of 1.36. Variant U39C U73C A140G has a self-cleavage of 0. Variant U39C U73G U81A G93U has a self-cleavage of 0.03. For U39C U85A U96C, the self-cleavage was 0.09. For U39C U87C U143C, the self-cleavage was 0.23. U39C U96A U104C U119A gave a self-cleavage of 0. Variant U39C U96C A117U has a self-cleavage of 0.06. For U39C U96C U109A, the self-cleavage was 0. U39C U96C U134A showed a self-cleavage of 0. U39C U100A U134A showed a self-cleavage of 0.39. Work on U39C U102C U115G C133U yielded a self-cleavage of 0.66. With U39C U104C A124U the self-cleavage was 1.44. U39C U108A A141G A142G gave a self-cleavage of 0.53. With U39C U109C A136G A140G U143A the self-cleavage was 0.62. U39C U130C U143A showed a self-cleavage of 0.99. Variant U39G A43G U45A C110U U143A has a self-cleavage of 0.37. U39G A57G U132C gave a self-cleavage of 1.02. Work on U39G A79G U81C A121U yielded a self-cleavage of 0.3. Variant U39G A94G U112C C123U A136U has a self-cleavage of 0.42. Work on U39G U46C A64U U104C yielded a self-cleavage of 0.45. In the case of U39G U47C U96C A138G, the self-cleavage is reported as 0. With G40A A43G A65G A138G the self-cleavage was 0.09. In the case of G40A A43G U46C U62C U85A, the self-cleavage is reported as 0.08. G40A A59G U100C U102C showed a self-cleavage of 0.05. Variant G40A A59U G72A A121U A141U has a self-cleavage of 0.55. G40A A67U U96A A140G showed a self-cleavage of 0.02. G40A A69U U112C G122A A138G showed a self-cleavage of 0.05. G40A A94G A107G showed a self-cleavage of 0.16. G40A A107G A124G showed a self-cleavage of 0.77. For G40A C66U U130C, the self-cleavage was 0. In the case of G40A G58U A121U U132C, the self-cleavage is reported as 0.03. Work on G40A G105A A140G yielded a self-cleavage of 0.81. For G40A U45C U87C A138G, the self-cleavage was 0.24. G40A U46C A136G A140G showed a self-cleavage of 1.1. G40A U47A A94G U96A showed a self-cleavage of 0.06. For G40A U47A U102C, the self-cleavage was 0.71. With G40A U47C A64G A129G the self-cleavage was 0.17. With G40A U112A A124G the self-cleavage was 1.12. G40C U115C A136G showed a self-cleavage of 1.11. With G40U A64G U73C the self-cleavage was 1.1. In the case of G40U A79G A121G, the self-cleavage is reported as 0.86. With G41A A42G A117U A129U A136U A140G the self-cleavage was 1.55. With G41A A42G U108C G114A the self-cleavage was 1.41. G41A A43G G125U U134A showed a self-cleavage of 1.37. G41A A50G C63U C84U U115C showed a self-cleavage of 0.15. For G41A A50G U119A, the self-cleavage was 0.91. In the case of G41A A57U A94G, the self-cleavage is reported as 0.06. G41A A129G U143C gave a self-cleavage of 1.57. With G41A C51U U52C A59G the self-cleavage was 0.07. G41A G75A A140G showed a self-cleavage of 1.42. G41A U46C U52C A138G gave a self-cleavage of 1.14. For G41A U47A A78G A124G, the self-cleavage was 0.69. In the case of G41A U52G U62G A78U, the self-cleavage is reported as 0.15. G41A U62C U102C gave a self-cleavage of 0.02. In the case of G41A U85C U100C, the self-cleavage is reported as 0.03. With G41U A64G G82A the self-cleavage was 0.14. Work on G41U A77G A129U yielded a self-cleavage of 0.38. For G41U U47C U102C, the self-cleavage was 1.11. With A42C A43G U62C A141G the self-cleavage was 0. A42C G54A G82A U115C A117U gave a self-cleavage of 0.23. For A42C G55C A77G U91C, the self-cleavage was 0. In the case of A42C U45G U52A G82U, the self-cleavage is reported as 0.94. For A42C U46C A92U A107U U119A, the self-cleavage was 0.58. A42C U62C A69U A94G A140G gave a self-cleavage of 0. In the case of A42C U73G U96A, the self-cleavage is reported as 0. For A42G A43G A140G, the self-cleavage was 1.63. A42G A50G A67G A78G showed a self-cleavage of 0. A42G A50G A129G showed a self-cleavage of 0. Work on A42G A50G G83U A138G yielded a self-cleavage of 0.45. Variant A42G A57G A67G U115A has a self-cleavage of 0.
